Assay results from PubChem BioAssay AID1671193 (National Center for Advancing Translational Sciences (NCATS), 2021).
“And” between values parts separate entries of the source, which are not always exact repeats. Identical values can stand only once. About 180 (0.12%) of roughly 150,000 compounds were called active. The shares of active, inactive and inconclusive entries below differ from those in the screen. Calls follow the shape of the dose curve; as a rule, active = well fitted cell-killing curve with a large enough effect; inconclusive = small, poorly fitted or top-dose-only effect, or effect the other way; inactive = flat fitted curve, though single readings scatter. Potencies beside an inconclusive call are fits to weak or partial responses and may not hold up.

Test: GF-AFC viability counterscreen for inhibitors of alpha-synuclein gene (SNCA) expression; also: nearly all actives have a fitted effect of over 30% in size;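 as to activity change, negative = cytotoxicity: 0% = DMSO-treated cells and -100% = medium-only wells without cells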
Conditions: HEK-293-SNCA-luc viability, GF-AFC fluorescence, 24 h; activity change, negative = cytotoxicity: at 57.1 µM (top of the series) unless noted
Method in brief: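 Cytotoxicity counterscreen: after 24 h compound treatment of genome-edited SNCA-luciferase HEK-293 cells, live-cell protease substrate GF-AFC read by fluorescence after 30 min; activity scaled between DMSO (0%) and medium-only (-100%), curves Hill-fitted.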
Potency is read from the fitted curve at half-maximal effect; tags tell the direction and shape of the fitted curve.

SMILES	Potency	activity change, negative = cytotoxicity
CC1=Nc2cc(C(=O)NC3CCC(C)CC3)ccc2Sc2c(C)ccc(C)c21 (centres undefined)	inconclusive: 5.62 µM [cytotoxic, single point]	
COCCn1c(=O)c(-c2ccccc2)nc2cnc(N3CCNCC3)nc21	inconclusive: 28.2 µM [rising, partial curve]	
Clc1ccccc1C1(c2ccnc(C3CCCC3)n2)CCNCC1	inconclusive: 39.8 µM [cytotoxic, single point]	
CN1CCN(Cc2nc(C3(O)CCN(C(=O)N4CCOCC4)CC3)cs2)CC1	inactive	
CN(Cc1cnn(-c2ccc(F)cc2)c1)C(=O)c1cn(Cc2cccc3ccccc23)nn1	inconclusive: 39.8 µM [cytotoxic, single point]	
Cc1ccccc1-c1cnc2[nH]cc(CC(=O)NC3CC3)c2c1	inactive	
CC1=C[C@@H](CN2CCN(C)CC2)[C@H](C(C)C)C[C@H]1Cc1nnc(-c2ccc(N(C)C)cc2)o1	inconclusive: 28.2 µM [cytotoxic, single point]	
Cn1ncc2c(C(=O)Nc3ccc(F)cc3)cc(-c3ccc(Cl)cc3Cl)nc21	inconclusive: 8.91 µM [cytotoxic, single point]	
Cc1cc2c(c(=O)n(-c3ccc(F)cc3)c(=O)n2CC(=O)Nc2ccc3c(c2)OCO3)n1C	inconclusive: 25.1 µM [cytotoxic, partial curve, poor fit]	
O=C(CNC(=O)c1cccc(-c2ccsc2)c1)NC1CCC1		inactive: 2.01% [at 12.5 µM]
CN(C(=O)Cn1c(=O)n(CCC(=O)NCc2ccc3c(c2)OCO3)c(=O)c2sccc21)c1ccccc1	inconclusive: 8.91 µM [cytotoxic, partial curve, poor fit]	
O=C(C1CCN(c2nc(-c3ccccc3)nc3c2CCC3)CC1)N1CCNCC1	inconclusive: 2.51 µM [cytotoxic, full curve, poor fit]	
Cc1nc(-c2cccc(Cl)c2)n(CC(=O)NC(C)CCc2ccccc2)c(=O)c1CCO (centres undefined)	inactive	
CCC(C)NC(=O)C1CCCN1c1nccc(Nc2ccccc2F)n1 (centres undefined)		inactive: -4% [at 12.5 µM]
Cc1ccc(-c2cc3c(=O)n(CCNC(=O)Cc4ccccc4Cl)ccn3n2)c(C)c1	inactive	
O=C1CCN(C(=O)CCC2CCCC2)CCCC(c2nc(-c3cccnc3)no2)CCN1 (centres undefined)	inactive	
CCOc1ccccc1CN1CCC2(CCN(C(=O)Cc3ccccn3)CC2)Oc2ccccc21	inactive and inconclusive: 7.08 µM [cytotoxic, single point]	
CCC1=Nc2cc(C(=O)NCc3ccccc3OC)ccc2Sc2ccc(Cl)cc21	inconclusive: 0.562 µM [rising, full curve, poor fit]	
CCCCC(=O)NC1CCN(c2cnn(Cc3ccccc3)c(=O)c2)CC1	inactive	
O=C(NCCc1ccccn1)c1nc(-c2ccccc2)cc2[nH]ccc12	inconclusive: 17.8 µM [cytotoxic, partial curve, poor fit]	
O=C(NNc1nc2cc(F)ccc2n2cccc12)c1cnccn1	inconclusive: 2.38 µM [cytotoxic, full curve, poor fit]	
CCNc1ncc2nc(-c3ccc(Cl)cc3)c(=O)n(-c3ccccc3)c2n1	inconclusive: 22.4 µM [rising, partial curve, poor fit]	

SMILES	Potency	activity change, negative = cytotoxicity
CN(c1ncccc1CNc1nc(Nc2ccc3c(c2)CC(=O)N3)ncc1C(F)(F)F)S(C)(=O)=O	inconclusive: 24.1 µM [cytotoxic, partial curve, poor fit]	
COc1ccc(-c2cc3ccc(O)c(CN4CCCCC4C)c3oc2=O)cc1OC (centres undefined)	inconclusive: 14.1 µM [rising, partial curve]	
COCCn1cc2c3c(cccc31)CN(C(=O)COc1cccc(C)c1)CC2	inactive	
CCc1[nH]c2c(CNC(=O)c3n[nH]c4c3CCC4)cc(C)cc2c1C	inactive	
CC1=C[C@@H](CN2C(=O)c3ccccc3C2=O)[C@H](C(C)C)C[C@H]1Cc1nc2ccccc2[nH]1	inactive	
CCc1ccc(OCc2ccccc2C(=O)Nc2ccc3nc(C)cc(N)c3c2)cc1	inconclusive: 42.9 µM [cytotoxic, single point]	
CCNC(=O)N[C@H]1CO[C@H]2[C@@H]1OC[C@H]2OC(=O)Nc1ccc(C(C)=O)cc1	inactive	
Cc1cc(C(=O)N2C[C@@H](COCC3CC3)[C@H](c3ccccn3)C2)ccn1	inconclusive: 31.6 µM [cytotoxic, single point]	
c1cc(-c2n[nH]c(CNC3CCC4(CCNCC4)CC3)n2)ccn1	inactive	
CCCc1nnc(C[C@@H]2C[C@@H](C(C)C)[C@H](CN3CCC(CO)CC3)C=C2C)o1	inactive	
O=C(c1c(OCC2CC2)cc(=O)n2c1CCOCC2)N1CCN(c2ncccn2)CC1	inconclusive: 7.94 µM [cytotoxic, full curve, poor fit]	
COc1ccc(C(=O)N(c2ccc(C)cc2)S(=O)(=O)c2ccc(C)cc2)cc1	inconclusive: 3.98 µM [cytotoxic, full curve, poor fit]	
CN(C)C[C@@H]1CN(Cc2ccccc2)C[C@H]1NC(=O)c1ccnn1C	inactive	
CCOc1cccc(C(=O)N(Cc2ccc(F)cc2)Cc2ccco2)c1	inconclusive: 35.5 µM [rising, single point]	
Cc1ccc(N2C(=O)CCSC23C(=O)N(Cc2ccc(F)cc2)c2ccccc23)cc1 (centres undefined)	inconclusive: 39.8 µM [cytotoxic, single point]	
Cc1ccc(NC(=O)Cn2c(C)cc3nc4n(c(=O)c32)CCC4)cc1Cl	inactive	
O=C(Cn1cccc1-c1nc(-c2ccc3c(c2)OCO3)no1)Nc1ccc(Cl)cc1F	inactive	
O=C([C@@H]1C[C@H](F)CN1S(=O)(=O)Cc1ccc(Cl)cc1)N1CCc2ccccc2C1	inconclusive: 35.5 µM [cytotoxic, single point]	
O=C(NCC(F)(F)F)c1ccc2oc(-c3ccncc3)nc2c1	inactive	
CCc1ccc(NC(=O)CCCc2nnc3n(CCCOC)c(=O)c4sccc4n23)cc1	inconclusive: 10 µM [cytotoxic, partial curve, poor fit]	
COCCNC(=O)[C@@H]1C[C@H](Oc2ccccc2)CN1C(=O)Nc1ccc(C)c(C)c1		inconclusive: -18.4%
CN1CCCN(C(=O)CCC[C@@H]2[C@H]3CCCN4CCC[C@@H](CN2Cc2ccccc2)[C@@H]34)CC1	inconclusive: 15.8 µM [cytotoxic, partial curve]	

SMILES	Potency	activity change, negative = cytotoxicity
CCOc1ccc(CNC(=O)C2CCCN(c3nn4cc(-c5ccc(F)cc5)nc4s3)C2)cc1 (centres undefined)	inactive	
COc1cccc(-c2cc(C3CCN(C(=O)Nc4ccccc4C)CC3)[nH]n2)c1	inactive	
COc1ccccc1N1CCN(C(=O)c2cc3c(-c4ccccc4F)nn(C)c3s2)CC1	inconclusive: 31.6 µM [cytotoxic, single point]	
O=C(Cn1c(=O)n(-c2ccccc2Cl)c(=O)c2sc3ccccc3c21)NC1CCCC1	inconclusive: 0.891 µM [cytotoxic, full curve]	
CCNc1ncc2nc(-c3cc(F)cc(F)c3)c(=O)n(C)c2n1	inconclusive: 10 µM [rising, partial curve]	
CN(C)C(=O)CNC(=O)c1cccc(-c2ccsc2)c1		inactive: -9.35% [at 12.5 µM]
CNc1ccc([N+](=O)[O-])c(Nc2ccc3[nH]ncc3c2)n1	inconclusive: 10.6 µM [cytotoxic, partial curve, poor fit]	
CCN(CC)C(=O)N1CCCCCCNC(=O)[C@@H]2C[C@@H](c3nc(-c4cccnc4)no3)C[C@@H]21	inconclusive: 12.6 µM [cytotoxic, partial curve, poor fit]	
O=C(c1ccc(F)cc1)N1CCc2nc(C3CC3)nc(-c3ccc(O)cc3)c2C1	inactive	
Cc1cccc(S(=O)(=O)N2CCCC(Cn3c(C4CC4)nc4cccnc43)C2)c1 (centres undefined)	inconclusive: 39.8 µM [cytotoxic, single point]	
COCCCN(CCC(=O)NCCc1ccccc1)C(=O)c1cc(C)oc1C	inconclusive: 1 µM [rising, full curve, poor fit]	
COc1ccc(-c2noc(Nc3ccc(C)c(C)c3)n2)cc1	inconclusive: 39.8 µM [cytotoxic, single point]	
c1ccc(-c2noc(-c3ccccc3OC3CCNC3)n2)cc1 (centres undefined)	inconclusive: 22.4 µM [cytotoxic, single point]	
COCCN1C(=O)c2ccccc2C(C(=O)NCCc2ccccc2)C12CCCC2 (centres undefined)	inactive	
Cc1cccc(Cn2c(=O)n(Cc3ccccc3)c(=O)c3sc4ccccc4c32)c1	inconclusive: 3.98 µM [rising, full curve, poor fit]	
Cc1ccc(NC(=O)CSc2nc3ccccc3n2CC(=O)N(C)C2CCCCC2)cc1C	inconclusive: 1.58 µM [cytotoxic, full curve, poor fit]	
Cc1nc(-c2cccc(F)c2)sc1CCNC(=O)C(=O)Nc1ccc2c(c1)OCCO2	inconclusive: 1 µM [cytotoxic, full curve, poor fit]	
COc1ccc(NC(=O)N2Cc3[nH]cnc3C[C@H]2c2nc(-c3ccc(F)c(Cl)c3)no2)cc1	inconclusive: 11.2 µM [cytotoxic, partial curve, poor fit]	
CCOCCCn1c(=N)c(C(=O)NCc2ccccc2)cc2c(=O)n3ccccc3nc21	inconclusive: 1.78 µM [rising, full curve, poor fit]	
N#Cc1ccccc1CN1CCCCCCNC(=O)[C@@H]2CCC[C@@H]21	inconclusive: 39.8 µM [cytotoxic, single point]	
